This is an account of results in paper PMC5120205 (2016).

One experiment concerns the target D3-03-N1. Kind of experiment: SPR; 37 °C. (In general: SPR reads the build-up and loss of mass on a sensor chip optically.)
The target in experiment [1] is D1-10-N1 germline-reverted. Kind of experiment: SPR.
The target of experiment [2] is D2-14-N1 germline-reverted. Kind of experiment: SPR.
Experiment [3] concerns the target D3-23-N1 germline-reverted. Kind of experiment: SPR.
The target in experiment [4] is D3-12-N1 germline-reverted. Kind of experiment: SPR.
In experiment [5] the target is D3-03-N1 germline-reverted. Kind of experiment: SPR.
In experiment [6] the target is D3-24-N1 germline-reverted. Description: SPR.
The target of experiment [7] is D4-31-N2 germline-reverted. Kind of experiment: SPR.
The target of experiment [8] is D3-02-N2 germline-reverted. Description: SPR.
Experiment [9] deals with D3-05-N2 germline-reverted. Kind of experiment: SPR.
Experiment [10] concerns the target D3-01-N2 germline-reverted. Kind of experiment: SPR.

B1: recombinant full-length IsdB (natural protein)
chain: not shown
For orientation: Kd means the constant that tells how readily two partners part at equilibrium. High values mean lower affinity, low ones higher affinity. With B1, the Kd with D3-03-N1 worked out at 0.000686 µM; in experiment [1], 0.0067 µM; in [2] it was 0.0061 µM; in [3] it was 0.0566 µM; in [4], 0.0325 µM; in [5], 1.17 µM. Moreover, binding in experiment [6] was put at a Kd of 0.16 µM.

B2: IsdB NEAT2 domain (domain or fragment)
chain: not shown
As for B2, the Kd came to 0.716 µM in experiment [7], 0.665 µM in [8], 0.0569 µM in [9] and 0.0405 µM in experiment [10].
